“And” between values parts separate entries of the source, which are not always exact repeats. Equal entries are not always repeated. The shares of active, inactive and inconclusive entries below differ from those in the screen. For some of these results: Where the call is inconclusive, the potency comes from a doubtful curve fit. The source made the active and inactive calls. Calls come from the whole dose curve; as a rule, active = well fitted curve in the direction sought with a large enough effect; inconclusive = small, poorly fitted or top-dose-only effect, or another doubt; inactive = no such curve, though single readings can be large; an effect the other way counts as inactive or inconclusive.
What was measured:
[1] = qHTS of pediatric cancer cell lines to identify multiple opportunities for drug repurposing: Primary screen for BT-37 cells (AID 1347094)
Summary of the method: (§1)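 Phenotypic viability qHTS, 48 h compound exposure, CellTiter-Glo luminescence read-out; multi-concentration dosing so that potency and efficacy derive directly from the primary screen's curves.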

[2] = qHTS of pediatric cancer cell lines to identify multiple opportunities for drug repurposing: Primary screen for NB-EBc1 cells (AID 1347095)
Summary of the method: as §1

[3] = qHTS of pediatric cancer cell lines to identify multiple opportunities for drug repurposing: Primary screen for BT-12 cells (AID 1347101); note: nearly all actives have a fitted effect of over 25% in size
Summary of the method: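 Cells (500-1,000/well) rested 5 h, then received compounds for 48 h; metabolically active cells were measured by CellTiter-Glo luminescence. Final concentrations spanned up to 46 µM (MIPE, 11-point) or 0.59 nM-46 µM (NPC, 8-point) in primary screens, 11-point in follow-ups.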

[4] = qHTS of pediatric cancer cell lines to identify multiple opportunities for drug repurposing: Primary screen for MG 63 (6-TG R) cells (AID 1347105); conditions: MG 63 (6-TG R) viability, CellTiter-Glo, 48 h; activity change, negative = cytotoxic: at 46 µM (top of the series) unless noted; note: nearly all actives have a fitted effect of over 50% in size
Summary of the method: as §1

[5] = qHTS of pediatric cancer cell lines to identify multiple opportunities for drug repurposing: Primary screen for Rh30 cells (AID 1347107); note: nearly all actives have a fitted effect of over 75% in size
Summary of the method: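 Viability after 48 h compound treatment at 37C, 500-1,000 cells/well, read as ATP luminescence with CellTiter-Glo. Primary screens used 11-point (MIPE, 0.78 nM-46 µM) or 8-point (NPC, 0.59 nM-46 µM) final concentrations; follow-up screens used 11-point dilutions.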

MKL-2 = experiment: qHTS assay to identify novel small-molecules to repurpose for Merkel cell carcinoma treatment (AID 1296009); conditions: MCC and control cell lines, CellTiter-Glo viability, 72 h; activity change, negative = cytotoxicity: at 46 µM (top of the series); note: nearly all actives have a fitted effect of over 60% in size
Summary of the method: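 Dose-response viability screen; 72 hr exposure at 37 degree celsius; CellTiter-Glo added, 10 min room temperature, luminescence read; RLUs scaled between no-cell and DMSO wells.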

CASKI = experiment: Primary qHTS to identify gynecologic anti-cancer compounds using libraries of approved drugs and bioactive compounds (AID 1345084); conditions: Gynecologic cancer cell panel viability, ATPlite luminescence, 48 h; activity change, negative = cytotoxicity: at 57.5 µM (top of the series); note: nearly all actives have a fitted effect of over 55% in size; for activity change, negative = cytotoxicity: % is set by controls: 0 for no effect and ±100 for the full control effect
Summary of the method: (§2)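 ATP-based viability (ATPlite), 1,000 cells/well, 16 h pre-incubation, 48 h compound at 37 C, 5% CO2, 15 min RT before read.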

JEG-3 = experiment: as above; conditions: Gynecologic cancer cell panel viability, ATPlite luminescence, 48 h; series mostly up to 57.5 µM
Summary of the method: as §2

Tov112D = experiment: as above; conditions: Gynecologic cancer cell panel viability, ATPlite luminescence, 48 h; activity change, negative = cytotoxicity: at 57.5 µM (top of the series)
Summary of the method: as §2

C33A = experiment: as above; conditions: Gynecologic cancer cell panel viability, ATPlite luminescence, 48 h; series mostly up to 57.5 µM
Summary of the method: as §2

[6] = target: Phospholipid hydroperoxide glutathione peroxidase GPX4 (Homo sapiens) (UniProt P36969); experiment: Primary qHTS Assay for Inhibitors of Recombinant Selenoprotein Glutathione Peroxidase 4 (GPX4) (AID 1845192); note: nearly all actives have a fitted effect of over 65% in size
UniProt P36969, sequence (P36969 whole entry, looked up): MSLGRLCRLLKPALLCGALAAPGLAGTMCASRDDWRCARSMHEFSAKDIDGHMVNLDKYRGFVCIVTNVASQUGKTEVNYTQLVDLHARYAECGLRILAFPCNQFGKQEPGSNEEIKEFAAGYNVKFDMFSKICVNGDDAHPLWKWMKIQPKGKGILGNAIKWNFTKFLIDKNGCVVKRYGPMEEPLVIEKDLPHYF
Summary of the method: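 Steps: GPX4 plus compound, 30 min RT; add GR/GSH/NADPH master mix; start with cumene hydroperoxide; read 340/450 nm fluorescence at 0 and 15 min. Finals were 200 nM GPX4, 1 mM GSH, 0.5 mM CHP, 0.5 mM NADPH, 100 nM GR.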

[7] = Quantitative High-Throughput drug screen in 47 multiple myeloma cell lines against the NCATS MIPE library collection: KHM11_PLB cell viability assay (AID 1918962); conditions: KHM11 myeloma cell viability, CellTiter-Glo ATP luminescence, 48 h; viability, % of DMSO control: at 45.8 µM (top of the series); note: nearly all actives have a fitted effect of over 35% in size
Summary of the method: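 We plated 500 myeloma cells per well, pinned in MIPE 4.0 compounds, and incubated for 48 hours at 37C. ATP was then quantified with CellTiter-Glo, with DMSO and media-only wells defining 100% and 0%.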

[8] = Quantitative High-Throughput drug screen in 47 multiple myeloma cell lines against the NCATS MIPE library collection: JIM1_ECACC cell viability assay (AID 1918964)
Summary of the method: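 Relative luminescence from CellTiter-Glo served as the viability signal, referenced to DMSO-treated (100%) and cell-free medium (0%) controls. Treatment lasted 48 hours at 37C with 500 cells per well.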

[9] = Quantitative High-Throughput drug screen in 47 multiple myeloma cell lines against the NCATS MIPE library collection: L363_DSMZ cell viability assay (AID 1918984); conditions: L363 myeloma viability, CellTiter-Glo ATP luminescence, 48 h; viability (% of control): at 45.8 µM (top of the series); note: nearly all actives have a fitted effect of over 40% in size
Summary of the method: (§3)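 Cells were exposed to library compounds for 48 hours, after which ATP was measured by CellTiter-Glo. Signal was taken as median relative luminescence units.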

[10] = Quantitative High-Throughput drug screen in 47 multiple myeloma cell lines against the NCATS MIPE library collection: UTMC2_PLB cell viability assay (AID 1919868); conditions: CellTiter-Glo ATP luminescence, 48 h; viability (% of DMSO control): at 45.8 µM (top of the series); note: nearly all actives have a fitted effect of over 55% in size
Summary of the method: as §3
Potency is the fitted concentration of half-maximal effect; tags give direction and shape of the fitted curve.

Cc1ccc2nc(N)[nH]c(=O)c2c1Sc1ccncc1
Potency [1]: inconclusive: 12.3 µM [cytotoxic, partial curve] | Potency [2]: inconclusive: 29.9 µM [cytotoxic, single point] | Potency [3]: inconclusive: 8.71 µM [cytotoxic, partial curve] | Potency [4]: inconclusive: 6.68 µM [cytotoxic, partial curve, poor fit] | Potency [5]: inconclusive: 7.5 µM [cytotoxic, partial curve, poor fit] | Potency (MKL-2): inconclusive: 23.7 µM [inhibitor, partial curve, poor fit] | Potency (CASKI): inconclusive: 22.4 µM [cytotoxic, single point] and inconclusive: 7.08 µM [cytotoxic, single point] | Potency (JEG-3): active: 6.31 µM and inconclusive: 8.91 µM [cytotoxic, full curve] | Potency (Tov112D): inconclusive: 31.6 µM [cytotoxic, single point]

C[C@@H](CN1CCC(n2c(=O)[nH]c3cc(Cl)ccc32)CC1)NC(=O)c1ccc2ccccc2c1
Potency (C33A): inactive | Potency (JEG-3): inactive

CCCCCC(=O)O[C@]1(C(C)=O)CC[C@H]2[C@@H]3CCC4=CC(=O)CC[C@]4(C)[C@H]3CC[C@@]21C
Potency [1]: inconclusive: 24.6 µM [cytotoxic, single point] | Potency [2]: inconclusive: 29.9 µM [cytotoxic, single point] | Potency [3]: active: 27.6 µM | Potency (C33A): inconclusive: 22.4 µM [cytotoxic, partial curve, poor fit]

Cn1cnc(-c2nccc3c(=O)[nH]c(OCCCC(F)(F)F)nc23)c1
Potency [6]: active: 22.7 µM | Potency (JEG-3): inconclusive: 31.6 µM [cytotoxic, single point]

CCN(CC)CCNC(=O)c1c(C)[nH]c(C=C2C(=O)Nc3ccc(F)cc32)c1C
Potency [1]: active: 17.7 µM | Potency [5]: active: 27 µM | Potency [7]: active: 1.08 µM | Potency [8]: active: 0.481 µM | Potency [9]: active: 0.54 µM | Potency [10]: active: 0.54 µM | Potency (MKL-2): active: 15.2 µM

COc1cc2c(cc1OC(C)C)[C@H](c1ccc(Cl)cc1)N(c1ccc(N(C)CC3CCC(N4CCN(C)C(=O)C4)CC3)cc1)C(=O)C2 (stereo not given in full)
Potency [6]: inconclusive: 14.3 µM [inhibitor, partial curve]

Cc1cc(C(=O)Nc2cc(Nc3ccc4c(/C=C/c5ccccn5)n[nH]c4c3)ccc2F)n(C)n1
Potency [6]: inactive and inconclusive: 18 µM [inhibitor, partial curve, poor fit]

Cc1ccc2c(Nc3ccc(Cl)cc3)nccc2c1Nc1ncccc1-c1ncnc2nc[nH]c12
Potency (C33A): inactive | Potency (CASKI): inconclusive: 31.6 µM [cytotoxic, single point] | Potency (Tov112D): inconclusive: 39.8 µM [cytotoxic, single point]

CCN(CC)CCCCNc1ncc2cc(-c3c(Cl)cccc3Cl)c(NC(=O)NC(C)(C)C)nc2n1
Potency [6]: inconclusive: 28.2 µM [inhibitor, single point] and active: 7.18 µM | Potency (C33A): inconclusive: 3.16 µM [cytotoxic, partial curve, poor fit] | Potency (CASKI): inconclusive: 22.4 µM [cytotoxic, partial curve, poor fit] | Potency (Tov112D): inconclusive: 15.8 µM [cytotoxic, partial curve, poor fit]

Fc1ccc2[nH]ccc2c1-c1nc(N2CCOCC2)c2sc(CN3CCN(CC4CC4)CC3)cc2n1
Potency (C33A): inconclusive: 3.55 µM [cytotoxic, partial curve] | Potency (CASKI): inconclusive: 22.4 µM [cytotoxic, partial curve, poor fit] | Potency (JEG-3): active: 20 µM

CC1(C)CC[C@]23CO[C@@]4(CCC5[C@@]6(C)CC[C@H](O[C@@H]7OC[C@H](O[C@@H]8O[C@H](CO)[C@@H](O)[C@H](O)[C@H]8O)[C@H](O)[C@H]7O[C@@H]7O[C@H](CO)[C@@H](O[C@@H]8O[C@H](CO)[C@@H](O)[C@H](O)[C@H]8O)[C@H](O)[C@H]7O)[C@@](C)(CO)C6CC[C@@]5(C)[C@]4(C)C[C@H]2OC2OCC(O)C(O)C2O)C3C1 (stereo not given in full)
activity change, negative = cytotoxicity (C33A): inactive: -28.5% [at 6.55 µM] | Potency (CASKI): inconclusive: 6.31 µM [cytotoxic, single point] | Potency (JEG-3): inconclusive: 3.16 µM [cytotoxic, single point] | Potency (Tov112D): inconclusive: 3.16 µM [cytotoxic, single point]

Source: PubChem BioAssay (NCATS)
